Results on 23 compounds are retold here after article PMC4336329 (PLoS ONE, 2015).

The campaign covered roughly 310,000 compounds. About 14,000 (4.5%) showed an effect of 50% or more. The effect is printed as a negative number. The list shows a part of the results.
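Note: peak tail current of the secondary pulse compared with the same well before compound.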

Chain of human ether-à-go-go-related gene (hERG) potassium channel (Q12809 whole entry, looked up): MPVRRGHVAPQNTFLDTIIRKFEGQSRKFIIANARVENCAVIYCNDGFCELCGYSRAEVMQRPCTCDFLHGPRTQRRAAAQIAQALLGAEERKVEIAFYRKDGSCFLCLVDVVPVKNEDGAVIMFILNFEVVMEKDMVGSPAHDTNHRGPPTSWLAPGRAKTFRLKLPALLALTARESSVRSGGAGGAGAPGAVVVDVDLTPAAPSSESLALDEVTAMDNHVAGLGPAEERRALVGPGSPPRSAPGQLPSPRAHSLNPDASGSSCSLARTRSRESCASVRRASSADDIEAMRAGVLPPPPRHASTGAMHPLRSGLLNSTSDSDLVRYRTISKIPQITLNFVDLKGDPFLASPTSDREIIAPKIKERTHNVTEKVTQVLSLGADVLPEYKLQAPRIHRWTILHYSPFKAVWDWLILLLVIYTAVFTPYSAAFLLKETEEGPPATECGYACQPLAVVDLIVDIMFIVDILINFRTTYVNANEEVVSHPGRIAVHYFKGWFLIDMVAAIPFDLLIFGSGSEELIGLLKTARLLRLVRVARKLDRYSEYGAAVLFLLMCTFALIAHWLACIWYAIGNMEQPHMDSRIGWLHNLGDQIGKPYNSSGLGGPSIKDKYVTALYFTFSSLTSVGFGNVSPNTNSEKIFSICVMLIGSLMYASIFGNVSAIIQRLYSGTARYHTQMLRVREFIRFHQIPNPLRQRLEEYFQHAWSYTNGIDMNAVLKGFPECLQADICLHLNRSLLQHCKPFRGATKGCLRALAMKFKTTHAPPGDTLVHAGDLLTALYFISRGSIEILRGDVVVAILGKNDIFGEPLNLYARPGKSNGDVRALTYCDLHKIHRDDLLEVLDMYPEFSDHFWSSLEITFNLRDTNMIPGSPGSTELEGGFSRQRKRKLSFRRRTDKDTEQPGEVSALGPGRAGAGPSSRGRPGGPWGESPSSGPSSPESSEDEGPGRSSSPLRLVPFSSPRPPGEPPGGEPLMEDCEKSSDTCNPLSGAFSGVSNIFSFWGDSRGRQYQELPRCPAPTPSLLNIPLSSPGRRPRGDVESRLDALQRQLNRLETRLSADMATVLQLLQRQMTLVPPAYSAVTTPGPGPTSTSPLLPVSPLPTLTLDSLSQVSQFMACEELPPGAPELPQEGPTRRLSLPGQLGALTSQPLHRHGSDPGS

This assay has as its target human ether-à-go-go-related gene (hERG) potassium channel (human, UniProt Q12809). The assay is described as follows: primary screen, population patch clamp on CHO cells stably expressing hERG.
With `O=C(C1=C[C@H](c2ccc(Br)cc2)C[C@H](OCCCCO)O1)N1CCN(Cc2ccccc2)CC1`, the “hERG current change (%, negative = inhibition) at 10uM” value was -80.8%.

With `CN1CCN(C(=S)NC(=O)c2ccc(C(C)(C)C)cc2)CC1`, the “hERG current change (%, negative = inhibition) at 10uM” value is 5.45%.

For the compound `CCn1c(C)cc2c(c1=O)C(c1ccccc1)C(C(=O)OC)=C(N)O2` (centres unmarked), the “hERG current change (%, negative = inhibition) at 10uM” value was 26.6%.

Consider `COC(=O)Cc1ccc2c3ccccc3n(C)c2c1`, for which the “hERG current change (%, negative = inhibition) at 10uM” value is -4%.

For the compound `CCOC(=O)c1csc(NC(=O)c2ccc(C#N)cc2)n1`, the “hERG current change (%, negative = inhibition) at 10uM” value was 2.92%.

For `COc1ccc2[nH]c3c(c2c1)CCN1C(=O)N([C@@H](C)C(=O)NC2CC2)C(=O)[C@]31C`, the “hERG current change (%, negative = inhibition) at 10uM” value is listed as -4.21%.

With `COc1ccc2c(c1OC)C(=O)OC2C1c2cc3c(cc2CCN1C)OCO3` (centres unmarked), the “hERG current change (%, negative = inhibition) at 10uM” value was 6.25%.

For `COc1ccc(C2c3c(ccc4ccccc34)Oc3ncn4nc(-c5ccco5)nc4c32)cc1OC` (centres unmarked), the “hERG current change (%, negative = inhibition) at 10uM” value was -13.4%.

With `Cc1c(Cl)c([N+](=O)[O-])nn1CCCC(=O)O`, the “hERG current change (%, negative = inhibition) at 10uM” value amounted to 9.17%.

In the case of `Cc1cccc(NC(=O)CCS(=O)(=O)c2cc3c(cc2Cl)NC(=O)CO3)c1`, the “hERG current change (%, negative = inhibition) at 10uM” value was -12.1%.

As for `C#CCOCCOCCOCCNc1nc(N2CCN(C(=O)[C@H]([C@@H](C)CC)n3cc([C@@H](N)CO)nn3)CC2)nc(N2CCN(C(=O)[C@H]([C@@H](C)CC)n3cc([C@@H](N)CC(C)C)nn3)CC2)n1.Cl`, the “hERG current change (%, negative = inhibition) at 10uM” value was 7.34%.

`CC(C)[C@H](NC(=O)c1ccc(Cl)c([N+](=O)[O-])c1)C(=O)O`: the “hERG current change (%, negative = inhibition) at 10uM” value is 0.508%.

Turning to `Cc1ccc(S(=O)(=O)N2CCN(C(=O)COc3ccc(-c4nnco4)cc3)CC2)cc1`, the “hERG current change (%, negative = inhibition) at 10uM” value turned out to be 3.7%.

With `c1ccc2sc(NC3=NCN(CC4CCCO4)CN3)nc2c1` (centres unmarked), the “hERG current change (%, negative = inhibition) at 10uM” value came to 11.7%.

`Nn1cnn(Cc2ccccc2)c1=S`: the “hERG current change (%, negative = inhibition) at 10uM” value turned out to be 9.91%.

In the case of `O=C(CSc1ccc(-c2cccs2)nn1)Nc1ccccc1`, the “hERG current change (%, negative = inhibition) at 10uM” value is listed as -35%.

As for `CCC(C)NC(=O)C1CCN(c2nc(OC)nc(OC)n2)CC1` (centres unmarked), the “hERG current change (%, negative = inhibition) at 10uM” value was -4.66%.

Take `COc1cccc(/C=C2\SC(=S)N(CC3CCCO3)C2=O)c1` (centres unmarked): the “hERG current change (%, negative = inhibition) at 10uM” value was -0.111%.

Turning to `CCc1ccc(NC(=O)CSc2nnc(-c3cccs3)n2CC)cc1`, the “hERG current change (%, negative = inhibition) at 10uM” value is -69.7%.

Consider `C(#CC1CCCCC1)c1ccc2c(c1)COc1c3ccccc3nn1-2`, for which the “hERG current change (%, negative = inhibition) at 10uM” value worked out at 7.52%.

Turning to `CC(NC(=O)Nc1ccc(Cl)cc1)c1ccc2c(c1)OCO2` (centres unmarked), the “hERG current change (%, negative = inhibition) at 10uM” value is recorded as 12%.

Regarding `O=[N+]([O-])c1ccc(C2=Nn3cnnc3SC2)cc1`, the “hERG current change (%, negative = inhibition) at 10uM” value is on record as -62.2%.

As to `Cc1oc(C(=O)O)cc1COc1ccccc1Cl`, the “hERG current change (%, negative = inhibition) at 10uM” value is listed as 1.13%.
